Experimental data reported in PMC4336329 (PLoS ONE, 2015).
Hit rate of the full screen: of about 310,000 compounds, about 14,000 (4.5%) showed an effect of 50% or more. The effect is printed as a negative number. The list shows a part of the results.

Target: human ether-à-go-go-related gene (hERG) potassium channel (human, UniProt Q12809)
Assay: primary screen, population patch clamp on CHO cells stably expressing hERG
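Note: peak tail current of the secondary pulse compared with the same well before compound.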

human ether-à-go-go-related gene (hERG) potassium channel, sequence (Q12809 whole entry, looked up): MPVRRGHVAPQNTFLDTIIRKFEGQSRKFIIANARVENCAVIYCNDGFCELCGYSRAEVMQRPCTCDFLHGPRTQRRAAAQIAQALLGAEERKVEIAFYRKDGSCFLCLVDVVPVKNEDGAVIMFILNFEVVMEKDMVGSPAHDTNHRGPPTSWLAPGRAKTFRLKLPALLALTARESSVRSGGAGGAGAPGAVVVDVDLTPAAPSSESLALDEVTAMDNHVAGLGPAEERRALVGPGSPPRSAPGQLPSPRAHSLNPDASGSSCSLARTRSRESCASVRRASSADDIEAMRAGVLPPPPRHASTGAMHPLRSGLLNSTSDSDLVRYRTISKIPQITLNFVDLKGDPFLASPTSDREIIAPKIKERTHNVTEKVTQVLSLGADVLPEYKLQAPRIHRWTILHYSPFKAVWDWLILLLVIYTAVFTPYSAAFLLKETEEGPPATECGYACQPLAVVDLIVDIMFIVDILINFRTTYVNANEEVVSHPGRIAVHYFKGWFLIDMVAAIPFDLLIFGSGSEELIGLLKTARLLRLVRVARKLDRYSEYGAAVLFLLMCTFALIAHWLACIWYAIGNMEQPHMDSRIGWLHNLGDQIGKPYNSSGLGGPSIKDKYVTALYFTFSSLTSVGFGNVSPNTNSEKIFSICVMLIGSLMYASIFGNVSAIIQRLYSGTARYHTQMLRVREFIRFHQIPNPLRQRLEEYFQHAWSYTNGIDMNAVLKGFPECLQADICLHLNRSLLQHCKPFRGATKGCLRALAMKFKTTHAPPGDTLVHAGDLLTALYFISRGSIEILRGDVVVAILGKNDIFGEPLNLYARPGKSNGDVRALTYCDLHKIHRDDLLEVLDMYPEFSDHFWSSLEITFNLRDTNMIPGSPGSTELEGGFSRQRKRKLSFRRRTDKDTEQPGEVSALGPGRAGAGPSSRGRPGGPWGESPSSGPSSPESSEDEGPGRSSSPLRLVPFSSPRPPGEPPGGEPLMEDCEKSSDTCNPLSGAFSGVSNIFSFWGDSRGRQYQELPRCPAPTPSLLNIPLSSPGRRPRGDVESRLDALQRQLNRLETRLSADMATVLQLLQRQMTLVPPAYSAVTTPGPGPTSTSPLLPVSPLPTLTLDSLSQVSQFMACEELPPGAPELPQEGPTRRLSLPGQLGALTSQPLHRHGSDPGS

Structure (SMILES)	hERG current change (%, negative = inhibition) at 10uM
CN(CC(=O)N1CCOCC1)C(=O)CSc1nc2ccccc2s1	-0.119%
Cc1ccnc(NC(=O)CCC(=O)N(CC(=O)NCCc2ccccc2)c2ccc(F)cc2)c1	1.18%
Cc1cccc(NC2=C(Cl)C(=O)OC2OC(C)C)c1 (stereo not shown)	11.3%
CCn1nc(C(=O)NNC(=O)C2CSC3(C)CCC(=O)N23)c2ccccc2c1=O (stereo not shown)	5.77%
Cc1ccc(NS(=O)(=O)c2cc(C(=O)NCCSc3ccc(C)cc3)ccc2C)cc1	3.25%
Oc1ccccc1/C=N/n1cnnc1	18.9%
CN(C)c1ccc(CNc2ccccn2)cc1	11.2%
CSCC[C@H](NC(=O)NCc1ccccc1F)C(=O)O	20.1%
Cl.O=S(=O)(c1cccs1)N1CCN(C/C=C/c2ccccc2)CC1	-49.3%
O=[N+]([O-])c1ccccc1S(=O)(=O)N1CCCc2ccccc21	-3.22%
COc1ccc(/C=N/NC(=O)C(=O)/C=C2\NC3(CCCC3)Cc3ccccc32)cc1	8.03%
COc1cc(/C=C/C(=O)O)ccc1S(=O)(=O)N1CCCc2ccccc21	18.7%
CC(C)C[C@H]1CN=C(Nc2ccccc2)N1CCc1ccc(F)cc1	-62.4%
CC(=O)OCCCNc1cc(SCc2ccco2)c2nonc2c1[N+](=O)[O-]	-46%
O=S1(=O)c2ccccc2Nc2ccccc21	14.2%
CCn1c(SCC(=O)N/N=C(/C)c2ccncc2)nc2ccccc21	-19.4%
Cc1ccc(/C=N/NC(=O)c2nnn(-c3nonc3N)c2C)o1	-4.59%
Cc1cc(OCC(=O)NNC(=O)c2cccnc2)cc(C)c1Cl	0.465%
COc1ccc(-n2nc3c(c2NC(=O)CC(C)C)CS(=O)C3)cc1 (stereo not shown)	17.8%
CC1(C)c2ccccc2-c2nc3ccccc3cc2C1O (stereo not shown)	4.1%
Cc1ccc(OC(C)C(=O)Nc2ccc(S(=O)(=O)Nc3cc(C)on3)cc2)cc1 (stereo not shown)	-4.93%
CCCCn1c(N)c(N(CCOC)C(=O)CSc2nc3ccc(C)cc3[nH]2)c(=O)[nH]c1=O	4.27%

Structure (SMILES)	hERG current change (%, negative = inhibition) at 10uM
Cc1nsc2nc3c(F)c(F)c(F)c(F)c3cc12	17.2%
CCOC(=O)C1=C(c2ccccc2)N=c2s/c(=C\c3cc(OC)c(OC)c(OC)c3)c(=O)n2C1c1cccs1 (stereo not shown)	0.0851%
NNC(=O)c1sccc1OCc1cccc(C(F)(F)F)c1	3.95%
CC(C)(C)Nc1nc2cc([N+](=O)[O-])ccc2o1	21.3%
O=C1c2ccccc2NC(c2cnc3ccccc3n2)N1O (stereo not shown)	8.98%
CCN1C(=O)N(CC)C(=O)C2(Cc3ccccc3N3CCN(c4ccccc4)CC32)C1=O (stereo not shown)	7.3%
CCc1cccc(NC(=O)C2CCCN2S(=O)(=O)c2ccc3c(c2)CC(C)N3C(C)=O)c1 (stereo not shown)	-71.2%
O=C(Cn1cnc2c(cnn2-c2ccc(F)cc2)c1=O)N1CCCc2ccccc21	-27%
CC1(C(=O)N2CCC(CO)(Cc3cccc(C(F)(F)F)c3)CC2)CC1	4.02%
CCCCOc1ccc(C(=O)N/C(=C\c2ccc(OC)cc2)C(=O)OCc2ccco2)cc1	-1.47%
CN(CCc1ccccn1)C(=O)c1cc(COc2ccc(F)cc2F)on1	-2.82%
O=C(CSc1nc(NS(=O)(=O)c2ccccc2)cc(=O)[nH]1)Nc1ccc(F)cc1	10.7%
Cc1cccc(NC(=O)CC(C)(C)C)c1	3.01%
Cc1c(/C(O)=C2\C(=O)C(=O)N(CCN(C)C)C2c2cccs2)cnn1-c1ccccc1 (stereo not shown)	-1.9%
CCC(C)[C@H](NC(=O)NC1CC1)C(=O)O (stereo partly shown)	-1.44%
C=CCSc1nc2c(c(=O)[nH]c(=O)n2C)n1C/C=C(/C)Cl	-20.8%
Cc1ccc(N2CCN(C(=O)C3CCC(=O)N(Cc4ccc(Cl)cc4)C3)CC2)c(C)c1 (stereo not shown)	-23.7%
COC(=O)c1sc(N2C(=O)C(O)=C(C(=O)c3ccc(C)o3)C2c2cc(OC)ccc2OC)nc1C (stereo not shown)	16.7%
CCCCNC(=O)c1sc(=S)n2c1[nH]c(=O)c1ccc(C(=O)NCCc3ccc(OC)c(OC)c3)cc12	11.7%
COc1ccc([N+](=O)[O-])cc1N/C(=N/S(=O)(=O)c1ccccc1)c1ccccc1	-57.8%
Cc1cccc(-n2c(C)cc(C=C3C(=O)c4ccccc4C3=O)c2C)c1	21.1%
COc1ccccc1CCC(=O)N1CCN(S(=O)(=O)c2cccc(F)c2)CC1	-24.8%

Structure (SMILES)	hERG current change (%, negative = inhibition) at 10uM
CCOc1ccc(N(CC(=O)N2CCCCCC2)S(=O)(=O)c2ccc(C)cc2)cc1	-29.1%
NC(=O)CC(NC(=O)c1ccccc1)c1ccc(NC2CCCCC2)c([N+](=O)[O-])c1 (stereo not shown)	16.4%
COc1ccc(S(=O)(=O)N2CCOCC2)cc1C(=O)Nc1ccon1	-4.81%
Cc1nnc2c(NC3CCCCC3)nc3ccccc3n12	1.89%
O=C(CCCn1c(=S)[nH]c2cc3c(cc2c1=O)OCO3)NCc1ccco1	5.69%
Cc1ccc(NC(=O)N2CCCC2C(=O)NCCC2=CCCCC2)cc1 (stereo not shown)	-14.6%
COc1ccc(CNC(=O)Cn2nc(-c3ccc4c(c3)OCCO4)ccc2=O)cc1	-5.05%
COc1ccccc1CN1CCN(Cc2ccc(Cl)cc2)CC1.O=C(O)C(=O)O	-62.5%
Cc1nc(C)c(C(=O)Nc2cccc(C)c2C)o1	-0.939%
O=C(CCC(=O)c1cccs1)NNC(=O)c1ccccc1Cl	-10.4%
CC1=NN(C(=O)c2csc(C)c2)C(O)(C(F)(F)F)C1 (stereo not shown)	15.6%
O=C(Cn1c(=O)n(CCCCC(=O)NC2CCCC2)c(=O)c2ccccc21)NCCC1=CCCCC1	12%
COC(=O)c1cn(NC(=O)C2CCCCC2)c(=O)c2ccccc12	2.64%
O=C(COC(=O)Cn1cnc2ccccc2c1=O)NCC12CC3CC(CC(C3)C1)C2	5.66%
Cc1ccc(CSc2nnc(SCC(=O)N/N=C/c3ccc(C(=O)O)cc3)s2)cc1	14.2%
NC(=O)CC(NC(=O)Cc1ccc(Cl)cc1)c1ccc(N2CCN(c3ccccn3)CC2)c([N+](=O)[O-])c1 (stereo not shown)	25.9%
O=C(NCc1ccco1)c1ccc(COc2cc(Cl)ccc2Cl)cc1	-5.22%
O=C(CN1C(=O)NC2(CCCCC2)C1=O)N1CCN(S(=O)(=O)c2cccc(F)c2)CC1	-61.8%
Nc1cccc(NC(=O)CCC(=O)NCc2ccco2)c1	10.6%
CCOc1ccc(C(=O)CC(Sc2ccc(C)cc2)C(=O)O)cc1 (stereo not shown)	-1.67%
Cc1cccc2cc(/C=N/NC(=O)CN3CCCCC3)c(Cl)nc12	-12.8%
COc1cc(OC)cc(-c2nnc(NC(=O)c3ccc4c(c3)OCCO4)o2)c1	0.541%

Structure (SMILES)	hERG current change (%, negative = inhibition) at 10uM
CS(=O)(=O)c1ccccc1C(=O)Nc1ccc2sccc2c1	10.5%
O=C(CCCC(=O)N/N=C/c1ccccc1C(=O)O)N/N=C/c1ccccc1C(=O)O	1.62%
O=S(=O)(c1ccccc1)N1CCN(C(=S)NCCCN2CCOCC2)CC1	6.62%
Br.CC1=CS(=O)(=O)CC1Sc1ncn[nH]1 (stereo not shown)	10.2%
CC(C)N(C(=O)NC(=O)Nc1ccccn1)S(C)(=O)=O	2.35%
Cc1ccc(C(=O)NCCNc2ccc(Cl)cc2[N+](=O)[O-])o1	-60%
COc1ccc2c(CC(=O)Nc3ncc(C)s3)coc2c1	5.72%
CCOC(=O)C1CCCN(S(=O)(=O)c2cccc3cccnc23)C1 (stereo not shown)	-14.9%
COc1cccc(N2C(C(C)=O)=NN(c3ccccc3)C2c2ccc(N3CCOCC3)cc2)c1 (stereo not shown)	-1.98%
COc1ccc(C2/C=C\CN(S(=O)(=O)c3ccc4ccccc4c3)CC(=O)N2Cc2ccc(F)cc2)cc1 (stereo not shown)	8.33%
CCc1c(C)sc2nc3c(C(=O)N4CCOCC4)cc(C(=O)c4cc(F)ccc4O)cn3c(=O)c12	12.7%
CC(=O)/C(C#N)=C1\NC(=O)C(Cc2ccc(F)cc2)S1 (stereo not shown)	19.1%
COc1ccc(OCCSc2nc(N)cc(N)n2)cc1	-4.16%
Cc1cc2nc(-c3ccncc3)cc(C(F)(F)F)n2n1	10.8%
CCCCn1c(N)c(N(CCC(C)C)C(=O)C2CC(=O)N(Cc3ccc(C)cc3)C2)c(=O)[nH]c1=O (stereo not shown)	12.1%
CCOc1ccc(/C=N/NC(=O)CCC(=O)Nc2ccc(F)cc2)cc1	19.6%
O=c1oc2c(CN3CCCCC3)c(O)ccc2c2c1CCCCC2	-32.2%
O=C(NCCCc1ccccc1)c1cccc(S(=O)(=O)N2CCOCC2)c1	-30.6%
CC1CCCC(C)N1CCCNC(=O)C1CCCN(c2ncnc3c2nc2n3CCCCC2)C1 (stereo not shown)	8.21%
